According to patent US20190275125A1:

Target: Biosimilar (BS) bapineuzumab
Assay: MSD inhibition assay, abeta 1-28 coated plates

Biosimilar (BS) bapineuzumab, sequence (chain, as listed by the source, chain 1 of 2): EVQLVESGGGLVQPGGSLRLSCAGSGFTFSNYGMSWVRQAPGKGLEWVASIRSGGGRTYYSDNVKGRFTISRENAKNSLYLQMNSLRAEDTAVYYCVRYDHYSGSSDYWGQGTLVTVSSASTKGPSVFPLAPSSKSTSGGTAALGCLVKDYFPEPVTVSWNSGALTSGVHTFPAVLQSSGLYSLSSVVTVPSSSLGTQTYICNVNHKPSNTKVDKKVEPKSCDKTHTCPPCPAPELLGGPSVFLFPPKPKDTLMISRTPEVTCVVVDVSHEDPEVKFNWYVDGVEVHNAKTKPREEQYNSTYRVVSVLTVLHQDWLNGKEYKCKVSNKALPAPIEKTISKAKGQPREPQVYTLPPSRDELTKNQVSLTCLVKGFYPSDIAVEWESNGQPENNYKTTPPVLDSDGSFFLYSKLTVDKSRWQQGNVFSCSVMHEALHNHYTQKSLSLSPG
Biosimilar (BS) bapineuzumab, sequence (chain, as listed by the source, chain 2 of 2): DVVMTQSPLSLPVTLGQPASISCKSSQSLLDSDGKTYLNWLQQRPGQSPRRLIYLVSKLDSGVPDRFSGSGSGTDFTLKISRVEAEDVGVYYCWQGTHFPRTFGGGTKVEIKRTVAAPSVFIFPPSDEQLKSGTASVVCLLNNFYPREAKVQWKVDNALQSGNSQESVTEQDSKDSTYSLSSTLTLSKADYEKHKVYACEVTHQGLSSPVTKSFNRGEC

abeta […] (the N-terminal […] of abeta) (a stretch of the chain, chain not printed) (peptide; modification not given)
pIC50: 7.52

pIC50: −log10 of the molar value.
